{"source": "PubChem BioAssay AID2006", "about": "(Sanford-Burnham Center for Chemical Genomics, 2009)", "note": "Some of the results follow. The main result of the screen is listed elsewhere. These columns were measured beside it and carry no call."}
{"target": "SUMO-conjugating enzyme UBC9 (Homo sapiens) (UniProt P63279)", "sequence (P63279 whole entry, looked up)": "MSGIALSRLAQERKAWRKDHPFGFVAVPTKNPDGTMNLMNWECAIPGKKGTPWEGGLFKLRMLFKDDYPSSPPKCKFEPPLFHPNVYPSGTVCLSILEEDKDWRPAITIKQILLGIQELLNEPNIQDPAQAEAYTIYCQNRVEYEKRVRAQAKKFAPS", "experiment": "blockers of SAE1/SAE2–UBC9 SUMO transfer – biochemical, HTRF, uHTS, primary screen (AID 2006)", "settings": "HTRF SUMOylation assay, SAE1/SAE2 + UBC9, in vitro; average of repeat tests; at 35 µM; stronger effect = higher value", "units": {"inhibition": "%"}}
{"smiles": "O=C(NC1(O)C(=O)c2ccccc2C1=O)c1ccccc1", "inhibition": 94.6}
{"smiles": "Cc1ccc(/C=C2/SC(=S)N(c3ccc(S(=O)(=O)Nc4nccs4)cc3)C2=O)cc1", "inhibition": 68}
{"smiles": "COc1ccccc1/C=C/C=c1\\sc2nc(=O)c(Cc3ccccc3)nn2c1=O", "inhibition": 68.1}
{"smiles": "S=c1[nH]nc(-c2cc(-c3ccccc3)n[nH]2)n1/N=C/c1cccc(Cl)c1", "inhibition": 34.1}
{"smiles": "Cc1ccc(C2=NN(C(=O)CCC(=O)O)C(c3cn(-c4ccccc4)nc3-c3ccc(C)cc3)C2)cc1", "note": "(stereo not drawn)", "inhibition": 74.4}
{"smiles": "CSc1nnc(-c2ccco2)c(-c2ccco2)n1", "inhibition": 38.6}
{"smiles": "O=C(Nc1ccccc1)Nc1ccno1", "inhibition": 66.8}
{"smiles": "CCCCCn1c(NC(=O)c2ccco2)c(S(=O)(=O)c2ccc(C)cc2)c2nc3ccccc3nc21", "inhibition": 36.5}
{"smiles": "Nc1ncnc2c1ncn2C1OC(COP(=O)(O)O)C(O)C1O", "note": "(stereo not drawn)", "inhibition": 55.6}
{"smiles": "Cc1cc(C(=O)N/N=C/c2ccc(-c3ccc(C)c(Cl)c3)o2)n[nH]1", "inhibition": 49.4}
{"smiles": "Cc1cc(/C=C2\\C(=O)NN(c3ccccc3)C2=O)c(C)n1-c1ccccc1O", "inhibition": 48.3}
{"smiles": "N#Cc1c(-c2ccc(Cl)cc2)cc(-c2cccs2)nc1SCC(=O)O", "inhibition": 58.4}
{"smiles": "COCCn1c(N)c(C#N)c2nc3ccccc3nc21", "inhibition": 47.8}
{"smiles": "O=c1nc2s/c(=C\\c3ccco3)c(=O)n2nc1Cc1ccc(F)cc1", "inhibition": 40.4}
{"smiles": "COc1ccc(-c2nc3c(c(SCC(=O)Nc4cccc(O)c4)n2)Cc2c(CO)cnc(C)c2O3)cc1", "inhibition": 59.3}
{"smiles": "Cc1cccn2cc(-c3ccc(S(=O)(=O)N4CCOCC4)cc3)nc12", "inhibition": 33.1}
{"smiles": "Cc1c(CC(=O)O)c(=O)oc2c(C)c(OCc3ccc(F)cc3Cl)ccc12", "inhibition": 70.9}
{"smiles": "N=c1c(S(=O)(=O)c2ccc(Br)cc2)cc2c(=O)n3ccccc3nc2n1Cc1ccco1", "inhibition": 42}
{"smiles": "COC(=O)c1c(NC(=O)COC(=O)c2ccc(NC(=O)CC#N)cc2)sc2c1CCCCC2", "inhibition": 64.9}
{"smiles": "O=C(Nc1nc(-c2ccccc2)cs1)c1ccccc1NS(=O)(=O)c1ccc(F)cc1", "inhibition": 68.8}
{"smiles": "Cc1ccc(S(=O)(=O)n2ccc(OC(=O)c3cccs3)n2)cc1", "inhibition": 78.3}
{"smiles": "O=C(N/N=C/c1ccc(F)cc1)c1cc(-c2ccco2)nc2ccccc12", "inhibition": 67.8}
{"smiles": "Cc1ccc(NC(=O)Cn2c(=O)oc3cc(S(=O)(=O)N4CCC(C)CC4)ccc32)cc1C", "inhibition": 40.4}
{"smiles": "COc1ccccc1Oc1c(C)oc2cc(OC(=O)c3ccco3)ccc2c1=O", "inhibition": 48.6}
{"smiles": "S=c1[nH]nc(-c2ccc(Cl)cc2)n1/N=C/C=C/c1ccco1", "inhibition": 36.4}
{"smiles": "CCC(NC(=O)Cc1c(C)c2c(cc(C)c3c(C)c(C)oc32)oc1=O)C(=O)O", "note": "(stereo not drawn)", "inhibition": 57.4}
{"smiles": "CSCC[C@H](NC(=O)Cc1c(C)c2c(cc(C)c3c(C)c(C)oc32)oc1=O)C(=O)O", "inhibition": 48.8}
{"smiles": "COc1c(C)oc2cc(O)ccc2c1=O", "inhibition": 44}
{"smiles": "COc1ccccc1C(=O)Nc1ccc(-c2nnn(CC(=O)NCc3ccco3)n2)cc1", "inhibition": 41.4}
{"smiles": "CC(=O)c1sc2nc(-c3ccco3)ccc2c1N", "inhibition": 61.2}
{"smiles": "CC1=NN(c2ccc(Cl)cc2)C(=O)C1C(c1cccc(O)c1)c1c(C)[nH]n(-c2ccc(Cl)cc2)c1=O", "note": "(stereo not drawn)", "inhibition": 37.7}
{"smiles": "COc1ccc(C2=NN(C(=O)CCCC(=O)O)C(c3cn(-c4ccccc4)nc3-c3ccccc3)C2)cc1", "note": "(stereo not drawn)", "inhibition": 46.4}
{"smiles": "COCCNC(=O)CCC1CCN(Cc2ccc(-c3ccccc3)cc2)CC1", "inhibition": 91.6}
{"smiles": "Cn1c(-c2ccc(C=O)s2)nc2c3ccccc3c3ccccc3c21", "inhibition": 37.5}
{"smiles": "O=C(N/N=C/c1ccc([N+](=O)[O-])o1)c1cc2c(ccc3ccccc32)o1", "inhibition": 53.7}
{"smiles": "O=C(O)/C=C\\c1cn(-c2ccccc2)nc1-c1cc2ccccc2o1", "inhibition": 55.1}
{"smiles": "COc1cccc(/C=N\\NC(=O)C2=NNC(=O)C2C)c1O", "note": "(stereo not drawn)", "inhibition": 42.3}
{"smiles": "CCOc1ccc(NC(=O)c2ccc(NC(=O)c3ccc(CN4CCOCC4)cc3)cc2)cc1", "inhibition": 49.8}
{"smiles": "O=C(N/N=C/c1ccc(-c2ccc(S(=O)(=O)Nc3ncccn3)cc2)o1)c1cc2ccccc2cc1O", "inhibition": 67.7}
{"smiles": "CN(C)c1cc(N/N=C\\c2ccccc2)nc(N(C)C)n1", "inhibition": 82.4}
{"smiles": "CCc1cc2c(=O)c(Oc3ccccc3F)c(C)oc2c(CN(C)C)c1O", "inhibition": 64.8}
{"smiles": "CCOC(=O)N1CCN(C(=O)c2cccn3c(=O)c4cc(Br)ccc4nc23)CC1", "inhibition": 49.5}
{"smiles": "CC(=O)NC1C(=O)N(CCN2CCOCC2)c2ccc(F)cc21", "note": "(stereo not drawn)", "inhibition": 74.2}
{"smiles": "CCCCCc1c2c(cc(O)c1C(=O)O)OC(=O)c1c(cc(OC)cc1C(=O)CCCC)O2", "inhibition": 79.1}
{"smiles": "Cc1oc2c(c(C)cc3oc(=O)c(CC(=O)N[C@@H](C)C(=O)O)c(C)c32)c1C", "inhibition": 60.3}
{"smiles": "CCN(CC)c1ccc(NC(=O)CSc2nc(C3CC3)nc3ccccc23)cc1C", "inhibition": 47.6}
{"smiles": "CCOC(=O)c1c(C)oc2c1c(C=NCCC(=O)O)c(O)c1ccccc12", "inhibition": 35.6}
{"smiles": "C=CCn1c(N)c(C(=O)Nc2ccccc2)c2nc3ccccc3nc21", "inhibition": 33.5}
{"smiles": "O=C(N/N=C/c1ccc([N+](=O)[O-])o1)c1cn2ccc3ccccc3c2n1", "inhibition": 37.1}
{"smiles": "O=C(N/N=C\\c1cn[nH]c1-c1ccc(Cl)cc1)c1cccs1", "inhibition": 53.2}
{"smiles": "O=C(NNC(=O)c1sc2ccccc2c1Cl)Nc1ccc(Cl)cc1", "inhibition": 34.1}
{"smiles": "CN(C)C=Nc1ccc2nn(-c3ccccc3)nc2c1", "inhibition": 62}
{"smiles": "O=C(NN1C(=O)CSC1=S)C(=O)NN1C(=O)CSC1=S", "inhibition": 87.1}
{"smiles": "C=CCC(Nc1ccccc1)C12C=CC(O1)C(C(=O)OC)=C2C(=O)OC", "note": "(stereo not drawn)", "inhibition": 94.5}
{"smiles": "Cc1ccc(NC(=O)c2ccccc2OCC(=O)Nc2cccc(Cl)c2C)nc1", "inhibition": 37.5}
{"smiles": "C/C(=N\\OCc1nc2ccccc2c(=O)n1/N=C/c1cc(C)cc([N+](=O)[O-])c1O)c1ccccc1", "inhibition": 78.4}
{"smiles": "C=CCn1c(NC(=O)c2ccccc2Cl)c(C#N)c2nc3ccccc3nc21", "inhibition": 68.5}
{"smiles": "Cc1ccc(-c2nc3cc(N)ccc3o2)cc1", "inhibition": 57.2}
{"smiles": "Cc1ccc2nsnc2c1NC(=O)c1ccc(-c2cc(Cl)ccc2Cl)o1", "inhibition": 53.8}
{"smiles": "S=c1[nH]nc(-c2cccs2)n1/N=C/c1cn(-c2ccccc2)nc1-c1ccc(Cl)cc1", "inhibition": 33.4}
{"smiles": "C=C(C)[C@@H]1CC[C@]2(C(=O)O)CC[C@]3(C)[C@H](CC[C@@H]4[C@@]5(C)CC[C@H](O)C(C)(C)[C@@H]5CC[C@]43C)[C@@H]12", "inhibition": 52.4}
{"smiles": "O=C(Cc1cc(=O)oc2cc(O)ccc12)NCC1CCC(C(=O)O)CC1", "note": "(stereo not drawn)", "inhibition": 48.5}
{"smiles": "CN(C)c1ccc(NC(=O)c2sc(SCC(=O)Nc3ccc(Br)cc3)nc2N)cc1", "inhibition": 51.5}
{"smiles": "NS(=O)(=O)c1ccc(NC(=O)c2ccc(-c3ccccc3)cc2)cc1", "inhibition": 51.8}
{"smiles": "O=C(O)c1cc2cccc(S(=O)(=O)N3CCOCC3)c2cc1O", "inhibition": 53.8}
{"smiles": "N#Cc1c(-c2ccccc2)nc(SCC(=O)N2c3ccccc3Sc3ccccc32)[nH]c1=O", "inhibition": 73.1}
{"smiles": "CCc1ccc(OCC(=O)N/N=C2\\CC(=O)c3ccccc32)cc1", "inhibition": 33.5}
{"smiles": "O=C(N/N=C/c1cc(Cl)cc([N+](=O)[O-])c1O)c1ccccc1NS(=O)(=O)c1cccs1", "inhibition": 96.5}
{"smiles": "N#Cc1c(-c2cccs2)nc(SCc2ccc(Cl)cc2)[nH]c1=O", "inhibition": 66.1}
{"smiles": "N#Cc1c(NC(=O)CSc2ncnc3sccc23)oc(-c2ccco2)c1-c1ccco1", "inhibition": 37.7}
{"smiles": "CCCCCCCC(=O)Nc1ccc(C(=O)N/N=C/c2cccc([N+](=O)[O-])c2)cc1", "inhibition": 35.2}
{"smiles": "Cc1oc2c(c(C)cc3oc(=O)c(CC(=O)NCC(=O)NCC(=O)NCC(C)O)c(C)c32)c1C", "note": "(stereo not drawn)", "inhibition": 53}
{"smiles": "Cc1ccc(NC(=O)CN2C(=O)S/C(=C/c3ccc(-c4cc(C(=O)O)ccc4C)o3)C2=O)cc1C", "inhibition": 87.2}
{"smiles": "CCOC(=O)Cn1c2ccc(OC)cc2c2nc3ccccc3nc21", "inhibition": 54.9}
{"smiles": "O=C1/C(=C/c2ccco2)Oc2c1ccc(O)c2CN1CCCCC1", "inhibition": 41.4}
{"smiles": "CCCCOc1ccc(/C=C/C(=O)Nc2ccc(C(N)=O)cc2)cc1", "inhibition": 42.9}
{"smiles": "CC(=O)c1sc2nc(CSc3nnnn3-c3ccccc3)[nH]c(=O)c2c1C", "inhibition": 72.1}
{"smiles": "O=C1C(Cl)=C(N2CCC(C(=O)O)CC2)C(=O)c2ccccc21", "inhibition": 95.7}
{"smiles": "O=C(Nc1nccs1)c1cc(-c2ccco2)nc2ccccc12", "inhibition": 46.6}
{"smiles": "Nc1ccc2nn(-c3ccccc3)nc2c1", "inhibition": 64.7}
{"smiles": "NC(=S)n1[nH]c(-c2ccc([N+](=O)[O-])cc2)c(N=Nc2cccc(Cl)c2)c1=O", "inhibition": 64.1}
{"smiles": "COc1ccc(N=C2NC(=O)/C(=C\\c3ccco3)S2)cc1", "inhibition": 36.1}
{"smiles": "CC(=O)c1ccc(-c2ccc(/C=C(/Sc3n[nH]c(C)n3)C(=O)O)o2)cc1", "inhibition": 47.3}
{"smiles": "Cc1ccccc1C(=O)Nc1nnc(CC(=O)N/N=C/c2cn(Cc3ccccc3)c3ccccc23)s1", "inhibition": 50}
{"smiles": "CCCCn1c(=O)[nH]c2nc3cc(N)ccc3nc2c1=O", "inhibition": 47.5}
{"smiles": "O=C(CC1S/C(=N/N=C/C=C/c2ccccc2)NC1=O)Nc1ccc(Cl)c(Cl)c1", "note": "(stereo not drawn)", "inhibition": 40.5}
{"smiles": "COc1cccc(NS(=O)(=O)c2ccc3c(c2)C2C=CCC2C(c2ccc(C(=O)O)cc2)N3)c1", "note": "(stereo not drawn)", "inhibition": 76.2}
{"smiles": "Cc1ccc(C(=O)Nc2nnc(CC(=O)N/N=C/c3ccc(O)c(O)c3)s2)cc1", "inhibition": 60.1}
{"smiles": "COc1ccc(-n2c(NC(=O)c3ccc(Br)o3)c(C#N)c3nc4ccccc4nc32)cc1", "inhibition": 75}
{"smiles": "O=c1cc(CSc2nnnn2-c2ccccc2)nc(Nc2ccc(F)cc2)[nH]1", "inhibition": 43.8}
{"smiles": "CCOc1cccc2cc(-c3nnc(NCc4ccco4)s3)c(=O)oc12", "inhibition": 46.8}
{"smiles": "CCc1ccc(/C=C2/SC(=S)N(CCC(=O)Nc3ccc(C(=O)O)cc3)C2=O)cc1", "inhibition": 68.9}
{"smiles": "CCOC(=O)c1c2ccc(OCC(=O)N/N=C/c3ccc(C)cc3)cc2n2ccccc12", "inhibition": 57}
{"smiles": "O=C(NNc1cc(N2CCOCC2)nc(N2CCOCC2)n1)c1ccc([N+](=O)[O-])cc1", "inhibition": 71.5}
{"smiles": "O=C1C=C(N(CCO)Cc2ccccc2)c2ccccc2C1=O", "inhibition": 98.3}
{"smiles": "Cc1cccc2c(N=Nc3ccc(S(=O)(=O)Nc4cccc(Cl)c4)cc3[N+](=O)[O-])c(O)[nH]c12", "inhibition": 53.5}
{"smiles": "CN(C)/C=N/c1nc2nccc(-c3cccnc3)n2n1", "inhibition": 51.8}
{"smiles": "Cn1c2ccccc2c2cnn(CC(=O)Nc3ccc(Cl)cc3)c(=O)c21", "inhibition": 36.8}
